# From the supplement of paper PMC3334620
# Over roughly 33,000 sequences, “E-score (-0.5 to 0.5)” has its median near -0.036; the highest 2% begin near 0.37. The list shows a part of the results.
# Molecular target: T1, Yer064c (UniProt P40041)
# T1 sequence: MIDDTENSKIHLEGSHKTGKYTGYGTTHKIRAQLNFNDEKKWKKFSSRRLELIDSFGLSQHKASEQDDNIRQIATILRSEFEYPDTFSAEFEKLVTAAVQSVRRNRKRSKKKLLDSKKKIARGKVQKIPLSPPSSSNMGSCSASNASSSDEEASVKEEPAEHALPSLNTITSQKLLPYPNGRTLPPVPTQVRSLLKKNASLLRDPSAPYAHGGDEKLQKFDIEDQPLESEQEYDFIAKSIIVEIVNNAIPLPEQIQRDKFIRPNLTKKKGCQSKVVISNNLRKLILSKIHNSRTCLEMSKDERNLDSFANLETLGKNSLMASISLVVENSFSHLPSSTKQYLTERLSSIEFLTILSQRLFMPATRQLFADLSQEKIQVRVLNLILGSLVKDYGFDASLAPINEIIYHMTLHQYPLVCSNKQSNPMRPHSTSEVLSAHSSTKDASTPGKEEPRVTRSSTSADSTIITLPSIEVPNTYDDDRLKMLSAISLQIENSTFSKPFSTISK
# Test: PBM E-score (8-mer binding enrichment) (E-score (-0.5 to 0.5)); higher = stronger / more preferred TF binding; most listed sequences are background and not binding sites
# Settings: protein concentration: 200 nM; construct: GST-full length
# Experimental: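 Universal 'all 10-mer' protein binding microarrays (Agilent AMADID 015681) probed with GST-tagged S. cerevisiae TFs (full-length or DBD) made by in vitro transcription/translation (PURExpress), about 100-200 nM. Bound TF was detected with fluorescent anti-GST. Each ungapped 8-mer (which stands for itself and its reverse complement) is scored by the PBM enrichment score (E-score), a modified Wilcoxon-Mann-Whitney statistic from -0.5 to +0.5, computed with the Universal PBM Analysis Suite. Scale: above 0.35 generally sequence-specific binding.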
row,Sequence,PBM E-score
1,ACTGACAT,0.0293
2,ATAGATCC,-0.0966
3,AGACGAGA,-0.00804
4,GCCATGTA,-0.13
5,TAATAACA,-0.126
6,ACGATCCA,0.00078
7,CAGTAATC,0.219
8,AGACAAAG,0.0856
9,AACTTTAT,-0.0572
10,CCACTCCG,-0.301
11,AAGCTACG,-0.169
12,CTTAGTCA,0.483
13,AAGGTTGG,-0.124
14,GATTGAGA,0.266
15,GTATTGGA,-0.109
16,GCCGAAAC,-0.128
17,GCATCGCA,-0.454
18,AATTAGAT,0.129
19,AACGATAC,-0.131
20,GATAGTCC,0.296
21,GCAATGCC,-0.31
22,CCACGTAA,-0.177
23,GGACAAGA,-0.207
24,ATATTCAA,0.128
25,ACCGGATC,-0.284

row,Sequence,PBM E-score
1,GTCCCCCA,-0.0782
2,CCTAAGAA,-0.0253
3,TAACCCTA,-0.0391
4,GCGTAGCA,-0.0584
5,ACCGCCGT,0.0283
6,TAGTTTAA,0.161
7,AACTCATT,0.2
8,AGTGGCCA,-0.134
9,CATGCATG,-0.19
10,AGAATACC,-0.139
11,AGTACCGG,-0.0513
12,CTAAGTAG,0.144
13,CGAGACTC,0.369
14,GAGGTCGC,-0.2
15,GACCGGGC,-0.232
16,AATTACCA,-0.0928
17,GAATCGAC,0.0312
18,CTAACCTA,-0.0376
19,GAGACTGA,0.28
20,GCCCATAA,-0.159
21,CGCTTACA,0.0298
22,CTGTAGCC,-0.0763
23,TGTAGCAA,-0.0247
24,GCTCACCA,-0.0476
25,ATTATGTC,0.114

row,Sequence,PBM E-score
1,AAGCTTCC,-0.281
2,GGGCAGGA,-0.108
3,CTTGGGCA,-0.235
4,GCTCCCCA,-0.411
5,ATAGATTC,0.0929
6,AACGATTA,0.0935
7,ATCGGCGA,-0.108
8,ATACGTAT,0.0144
9,CAACATGG,-0.127
10,ATGGCACG,-0.358
11,ACCCTGCA,-0.0587
12,GGGACGTA,-0.15
13,AAAAGTGT,-0.119
14,ATCGAGAC,0.131
15,ATCGTGCA,0.0457
16,AGCCATAT,0.233
17,CTGGACTA,0.121
18,CAGGTTCA,-0.102
19,GCGATCTA,-0.0439
20,CGTGTGAA,0.0511
21,CCAAGGAG,-0.116
22,GTCTCCAC,0.00609
23,CTCTGGTC,-0.00298
24,AAGGCAGA,-0.133
25,TCCATAAA,-0.0949

row,Sequence,PBM E-score
1,CGATCCTC,-0.047
2,CCCTATAA,-0.134
3,ACGTACTC,0.146
4,AGATAATC,0.213
5,CAGCGATA,-0.181
6,GATCCAGA,-0.0405
7,CCACGCCG,0.0673
8,AATGGTTA,0.158
9,AAGATTCA,0.37
10,AAGACTAT,0.417
11,AAGGGACT,0.245
12,CAGCCTAA,-0.142
13,GACACAGA,0.00032
14,ACGGACAC,-0.0251
15,CTCCTCGA,0.0215
16,CTTCGCGC,-0.0112
17,CAACACGG,-0.0306
18,CCAACTAC,-0.203
19,CCATCGAG,-0.0169
20,TATTAATA,-0.219
21,CCGCTCAG,-0.269
22,GAGTGCGA,0.0474
23,CAACATAC,0.0294
24,ACTTCACA,-0.0308
25,CCCAACGC,-0.164

row,Sequence,PBM E-score
1,CTTAAGCC,-0.0733
2,CAGAGCAG,0.0208
3,ACAAGAAT,0.0495
4,AATTGTAC,0.115
5,ACGGCCCG,-0.113
6,ATGCGTTG,-0.123
7,ACTCTCTC,0.0916
8,GACTTAAA,0.325
9,ACTGTTTG,0.146
10,AGTATACA,0.0167
11,CTGGGAAC,-0.115
12,ACTTTGGA,0.173
13,GCATCCAC,-0.0789
14,GGTTTAAC,0.106
15,ACTGTCCG,-0.022
16,CGCTGAGA,0.00195
17,TGCGTACA,-0.0452
18,TACAACAA,0.109
19,GCCAGAAA,-0.0404
20,CTGTGGTA,-0.0655
21,AACCTTAC,0.0889
22,CAGCAGTC,0.283
23,CCATATAC,0.123
24,ATTGATAG,0.0531
25,ACACTTCT,-0.0798

row,Sequence,PBM E-score
1,AGGGCGGC,-0.24
2,CTATGAAA,0.0225
3,ATATAACA,-0.0233
4,GACACCTA,-0.0466
5,GTTCATAA,0.0537
6,AATCTACC,0.00667
7,GTCTGTTA,-0.0206
8,AGGTACTG,-0.04
9,GGGACCAC,-0.023
10,ACGGAGAT,0.0115
11,AGCCGATG,-0.0329
12,AAATTAAC,0.0295
13,ATTAGACA,0.171
14,TTTCGAAA,0.154
15,TATTACGA,-0.0171
16,CCTCGTTC,-0.258
17,ATCAAACA,0.164
18,AATCCCAA,-0.233
19,ATATTGAT,0.093
20,CGGGGCCA,-0.249
21,CACACCTA,0.0389
22,ACGCATAT,-0.225
23,ACTGGCAT,-0.026
24,CAATTATG,-0.00919
25,CGGCTCAG,0.0602

row,Sequence,PBM E-score
1,CATGATAA,0.12
2,TGTAGACA,0.0684
3,CTCGGAAC,-0.012
4,ATCGTGTA,0.0855
5,ACGCATAG,-0.169
6,CTGTTCTA,-0.0779
7,GCATGTCC,-0.285
8,ACGCATCT,-0.0617
9,CAGTCGCA,0.15
10,ACCGAATC,0.0404
11,ACAAGCGC,-0.201
12,CTGCCACC,-0.206
13,ATTTTTGA,0.0961
14,AAGTGGTA,-0.0878
15,AAGAAATG,-0.0578
16,CCTCACCA,-0.134
17,AGGGCTCG,-0.284
18,ACCGAGGG,-0.323
19,CCCGGGTC,-0.198
20,AGCGCGGC,-0.245
21,CGGGTAAA,0.0546
22,CTACTCTA,0.159
23,ATTTGGTA,0.0742
24,GATCTGAC,0.147
25,CGATTAAA,0.249

row,Sequence,PBM E-score
1,AGCGTTCC,-0.147
2,CTATTGAG,0.262
3,GATTAATC,0.391
4,CATCCTCG,-0.202
5,ATATTATG,0.0717
6,GTCGCTAA,0.18
7,ATATGCAA,-0.11
8,AACTATTA,-0.00806
9,CTGGTCCC,-0.303
10,CCAACGAG,-0.121
11,ACTTAATG,0.204
12,ATTATTTC,0.0626
13,AAGTAATT,0.151
14,AGGCCGTG,-0.108
15,CACAACGC,-0.121
16,CCTCCCAG,-0.431
17,AGTAGCTA,-0.119
18,CTATCCAG,-0.114
19,GAATGCGA,-0.135
20,GTTTCGGA,-0.0974
21,GGTAGCAC,-0.158
22,AGCATACA,-0.152
23,CTCAAGCC,0.0764
24,CGGTGGAG,-0.234
25,CGGCCGAA,-0.0494

row,Sequence,PBM E-score
1,GAGAGAGC,-0.143
2,AGCCTTAT,-0.104
3,GACGGACA,-0.0475
4,GGGATCAA,-0.115
5,ATTGTCTC,-0.116
6,TACTGTAA,-0.0235
7,CGCCATGA,0.174
8,TGAAACCA,0.0456
9,CAACTCGA,0.0939
10,CTATAGTA,0.0624
11,AGTAGGCG,-0.0693
12,ACGACTGA,0.321
13,ATTTCAAA,0.129
14,CCTCCGCC,-0.173
15,GGTGGGAA,-0.0925
16,CACGCGCA,-0.152
17,AATAGCTG,-0.0714
18,CGAGATGC,0.0291
19,ATCCTTGA,0.0259
